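1) Cells in 96-well plates. 2) Compound, 48 h, 5 concentrations. 3) Linear interpolation between surrounding doses. 4) Unreached endpoint = highest concentration. GI50 marks 50% less growth.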 Some entries of the source have several records that differ or are many. This is not the full list of results. There may be further records. For part of these data: Records of one sample usually come from different ranges of test concentrations, which the source does not state; a value can be the end of its range. For part of these data: Values given together repeat one measurement in other runs, samples, wells, individuals or studies. What stands in brackets tells the records apart. A, B and so on number the origins entry by entry.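 TGI: total growth inhibition.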
What was measured:
Experiment in all cases: NCI anticancer screen, dose series, 48 h
CCRF-CEM leukemia = test system: CCRF-CEM leukemia
K-562 leukemia = test system: K-562 leukemia
RPMI-8226 leukemia = test system: RPMI-8226 leukemia
DU-145 prostate = test system: DU-145 prostate
HCT-15 colon = test system: HCT-15 colon
HOP-18 NSCLC = test system: HOP-18 NSCLC
HS 578T breast = test system: HS 578T breast
HT29 colon = test system: HT29 colon
PC-3 prostate = test system: PC-3 prostate
RXF 393 renal = test system: RXF 393 renal
SNB-78 CNS = test system: SNB-78 CNS
T-47D breast = test system: T-47D breast
ACHN renal = test system: ACHN renal
KM12 colon = test system: KM12 colon
OVCAR-4 ovarian = test system: OVCAR-4 ovarian
SF-268 CNS = test system: SF-268 CNS
HCT-116 colon = test system: HCT-116 colon
MDA-N = test system: MDA-N

Compound: COc1ccc2c(c1)/c(=C/c1ccc(N(C)C)cc1)c1cc(-c3ccccc3)[n+](C)n12
- TGI (CCRF-CEM leukemia): 2.69 µM and > 100 µM
- TGI (K-562 leukemia): 1.29 µM and > 100 µM
- TGI (RPMI-8226 leukemia): 887 nM and > 100 µM

Compound: CC[C@@]1(O)C(=O)OCc2c1cc1n(c2=O)Cc2cc3cc(N)ccc3nc2-1
- TGI (CCRF-CEM leukemia): 1.35 µM and > 100 µM
- TGI (DU-145 prostate): 815 nM and 38.1 nM
- TGI (HCT-15 colon): > 100 µM [mean of 2 tests] and 5.75 µM [mean of 4 tests]
- GI50 (HOP-18 NSCLC): 5.79 nM and 59.9 nM
- TGI (HS 578T breast): > 100 µM [1 test] and 8.29 µM [mean of 3 tests]
- TGI (HT29 colon): > 100 µM [1 test] and 711 nM [mean of 3 tests]
- TGI (K-562 leukemia): > 100 µM [mean of 2 tests] and 8.23 µM [mean of 4 tests]
- TGI (PC-3 prostate): > 100 µM [1 test] and 9.14 µM [mean of 3 tests]
- TGI (RXF 393 renal): 36.2 nM [1 test] and 521 nM [mean of 4 tests]
- TGI (SNB-78 CNS): 802 nM and 8.05 µM
- TGI (T-47D breast): 2 µM and 18.8 nM

Compound: CN[C@@H]1C[C@H]2O[C@@](C)([C@@H]1OC)n1c3ccccc3c3c4c(c5c6ccccc6n2c5c31)C(=O)N[C@@H]4O
- TGI (ACHN renal): 31.3 nM [1 test] and 12.9 µM [mean of 2 tests]
- TGI (HS 578T breast): 27.4 nM and 287 nM
- TGI (HT29 colon): 300 nM and 8.03 µM
- TGI (K-562 leukemia): 300 nM and 14.9 µM
- TGI (KM12 colon): 65.6 nM and 2.02 µM
- TGI (OVCAR-4 ovarian): 187 nM and 2.23 µM
- TGI (RPMI-8226 leukemia): 193 nM and 9.79 µM
- TGI (SF-268 CNS): 48.5 nM and 2.08 µM

Compound: c1cc(CNC2C3CCC(C3)C2c2c[nH]c3ccccc23)cc(CNC2C3CCC(C3)C2c2c[nH]c3ccccc23)c1 (configuration not stated)
- GI50 (HCT-116 colon): 201 nM [sample A, 1 test] and 11.9 µM [sample B, 1 test]
- TGI (HCT-116 colon): 380 nM [sample A, 1 test] and 24.2 µM [sample B, 1 test]
- TGI (HT29 colon): 1.05 µM [sample A, 1 test] and 12.6 µM [sample B, 1 test]
- GI50 (MDA-N): 276 nM [sample A, 1 test] and 11.6 µM [sample B, 1 test]
- TGI (MDA-N): 739 nM [sample A, 1 test] and 24.7 µM [sample B, 1 test]

— PubChem BioAssay (NCI)
